PubChem BioAssay AID686979 (National Center for Advancing Translational Sciences (NCATS), 2013)
The campaign covered roughly 420,000 compounds. About 50,000 (12%) were called active. This list was built around the results that the source calls inconclusive (neither active nor inactive); the mix of calls is not that of the screen. Calls come from the whole dose curve; as a rule, active = well fitted inhibition curve with a large enough effect; inconclusive = small, poorly fitted or top-dose-only effect; inactive = flat fitted curve, though single readings scatter. Potencies of inconclusive entries are left out as doubtful fits.

Assay: qHTS for Inhibitors of human tyrosyl-DNA phosphodiesterase 1 (TDP1): qHTS in cells in presence of CPT; note: nearly all actives have a fitted effect of over 55% in size
Details: chicken DT40 Tdp1-/-;hTDP1 cells + 20 nM CPT, ATP luminescence, 48 h; activity change, negative = growth inhibition: at 46.2 µM (top of the series) unless noted
Procedure, shortened: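 Chicken DT40 Tdp1-/- cells stably complemented with human TDP1 were seeded at 400 cells/well in medium containing 20 nM camptothecin, exposed to pin-transferred compounds, and grown at 37 °C for at least 48 hr. Viability was read as ATP luminescence.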
% is set by controls: 0 for no effect and ±100 for the full control effect; potency is the fitted concentration of half-maximal effect; tags give direction and shape of the fitted curve.

Q: For COc1ccc(S(=O)(=O)NCC(c2ccc(N(C)C)cc2)N2CCc3ccccc32)cc1 (stereo not drawn), which Potency is on record?
A: inconclusive [inhibitor, partial curve]

Q: For Cc1cccc(NC(=O)NNC(=O)c2ccccn2)c1, which “activity change, negative = growth inhibition” value is on record?
A: inactive: -2.29%

Q: Which Potency does the source give for COC(=O)[C@@]1(C)[C@H]2C(=O)N(Cc3ccccc3)C(=O)[C@H]2[C@H]2CN=C(SCC(=O)c3ccccc3)N21 here?
A: inconclusive [inhibitor, single point]

Q: Which Potency does the source give for COc1ccc2[nH]c(=O)c(CN(c3ccccc3OC)S(=O)(=O)c3ccccc3)cc2c1 here?
A: active: 16.4 µM

Q: For O=C(OC(c1ccccc1)c1nccc2ccccc12)c1cccc([N+](=O)[O-])c1 (stereo not drawn), which Potency is on record?
A: inconclusive [inhibitor, single point]

Q: For COc1cc(C(=O)NCCSc2ccc(F)cc2)cc(OC)c1OC, which Potency is on record?
A: inconclusive [inhibitor, single point]

Q: Which “activity change, negative = growth inhibition” value does the source give for COc1cc(NC(=O)COC(=O)C2CC(O)CN2S(=O)(=O)c2ccc(Cl)cc2)c(C)cc1[N+](=O)[O-] (stereo not drawn) here?
A: inactive: 9.05%

Q: Which “activity change, negative = growth inhibition” value does the source give for CC1CC(CN)CC(CO)C1 (stereo not drawn) here?
A: inactive: -8.19%

Q: With Cc1nnc(NC(=O)c2ccc3ccccc3c2)o1 as the compound, how does the Potency read?
A: inconclusive [inhibitor, single point]

Q: With COCCNC(=O)CSc1cn(CC(=O)N2CCCCCC2)c2ccccc12 as the compound, how does the Potency read?
A: inconclusive [inhibitor, full curve, poor fit]

Q: For CNC(=O)c1cc2c(=O)n3cccc(C)c3nc2n(C(C)C)c1=N, which Potency is on record?
A: inconclusive [inhibitor, single point]

Q: For C#CCN(C[C@H]1[C@H](OC(=O)NCC2CCCCC2)[C@H](OC(=O)NCC2CCCCC2)C[C@@H](C(=O)OC)[C@H]1C(=O)OC)S(=O)(=O)c1ccc(C)cc1, which Potency is on record?
A: active: 2.91 µM

Q: For COc1cccc(-c2ccc(NC(=O)C3CCCN(Cc4cnc(C)n4C)C3)cc2)c1 (stereo not drawn), which Potency is on record?
A: inconclusive [inhibitor, single point]

Q: With Cc1ccccc1C(=O)Nc1ccc(C(=O)NNC(=O)CCCOc2ccc(Cl)cc2Cl)cc1 as the compound, how does the Potency read?
A: inconclusive [inhibitor, partial curve, poor fit]

Q: With Cc1ccc(NC(=O)C2CCCN2S(=O)(=O)c2ccc3nc(-c4ccccc4)[nH]c3c2)cc1F (stereo not drawn) as the compound, how does the Potency read?
A: active: 18.4 µM

Q: Which “activity change, negative = growth inhibition” value does the source give for O=C(Nc1ccccn1)Nc1ccccc1Cl here?
A: inactive: 14%

Q: For COCCNC(=O)C1(C)CCCN(Cc2cc(-c3ccccc3)n(C)n2)C1 (stereo not drawn), which Potency is on record?
A: inconclusive [inhibitor, single point]

Q: With O=C1/C(=C/c2cccc(O)c2)SC(=S)N1CC1CCCO1 (stereo not drawn) as the compound, how does the Potency read?
A: inconclusive [inhibitor, partial curve, poor fit]

Q: For Cn1cccc1Cc1nnc(SCC(=O)Nc2nccs2)n1CCc1ccccc1, which Potency is on record?
A: active: 20.6 µM

Q: With CCN1C(=O)[C@H]2[C@@H](c3ccc(-c4ccccc4)cc3)N[C@@](Cc3ccccc3)(C(=O)OC)[C@H]2C1=O as the compound, how does the Potency read?
A: inconclusive [inhibitor, partial curve, poor fit]

Q: For CCOCCn1c(CN2CCN(c3cccc(Cl)c3)CC2)nc2c1c(=O)n(C)c(=O)n2C, which Potency is on record?
A: active: 7.31 µM

Q: For C[C@@H](NC(=O)c1nc[nH]c1C(=O)N(C)Cc1ccccc1)c1ccccc1, which Potency is on record?
A: inconclusive [inhibitor, single point]

Q: With CC1CCN(C(=O)c2cccc(S(=O)(=O)N3CCCc4ccccc43)c2)CC1 as the compound, how does the Potency read?
A: active: 16.4 µM

Q: Which “activity change, negative = growth inhibition” value does the source give for COc1ccc(NC(=O)NNC(=O)COc2cc(C)c(Cl)c(C)c2)c(OC)c1 here?
A: inactive: -9.26%

Q: For COc1cc(CNCCSc2nnnn2C)cc(Br)c1OCc1ccc(F)cc1, which Potency is on record?
A: inconclusive [inhibitor, single point]

Q: With C=CCN(CC=C)Cc1cc(=O)oc2cc(C)c(Cl)cc12 as the compound, how does the Potency read?
A: inconclusive [inhibitor, single point]

Q: Which Potency does the source give for CC(=O)Nc1ccc(S(=O)(=O)N2C(C)CCCC2C)cc1 (stereo not drawn) here?
A: inconclusive [inhibitor, partial curve]

Q: Which Potency does the source give for Cc1ccc(S(=O)(=O)N2CCN(C(=O)CCc3nc4ccccc4c(=O)[nH]3)CC2)c(C)c1 here?
A: inconclusive [inhibitor, single point]

Q: For Cc1ccc(C)c(CSc2ccc3nnc(CCNS(=O)(=O)c4ccccc4)n3n2)c1, which Potency is on record?
A: inconclusive [inhibitor, partial curve, poor fit]

Q: Which Potency does the source give for O=C1CCN(Cc2ccccc2)S(=O)(=O)c2ccccc21 here?
A: active: 29.1 µM

Q: With Cc1noc(C)c1-c1ccc2ncnc(NC3CC3)c2c1 as the compound, how does the Potency read?
A: inconclusive [inhibitor, single point]

Q: Which “activity change, negative = growth inhibition” value does the source give for O=C(Nc1ccccc1)c1ccc(S(=O)(=O)N2CCC(C(=O)O)CC2)cc1 here?
A: inactive: -5.91%

Q: Which Potency does the source give for O=C(c1cccc(S(=O)(=O)N2CCCCC2)c1)N1CCN(Cc2ccccc2)CC1 here?
A: inconclusive [inhibitor, partial curve]

Q: Which Potency does the source give for C[C@H]1CCCCO[C@H](CN(C)Cc2ccccc2)[C@@H](C)CN([C@@H](C)CO)C(=O)c2cc(NC(=O)CCC(F)(F)F)ccc2O1 here?
A: inconclusive [inhibitor, single point]

Q: Which Potency does the source give for COc1ccc(CCN2C(=O)CC(N3CCN(C/C=C/c4ccccc4)CC3)C2=O)cc1OC (stereo not drawn) here?
A: inconclusive [inhibitor, single point]

Q: Which Potency does the source give for C=C1C=C(C(F)F)n2ncc(C(=O)NCc3ccccc3OC)c2N1 here?
A: active: 10 µM

Q: For Cc1ccc(C(C)NC(=O)/C(C#N)=C\c2c(C)[nH]c3ccccc23)cc1 (stereo not drawn), which Potency is on record?
A: inconclusive [inhibitor, partial curve]

Q: For COc1cc(-c2nnc(COC(=O)c3cc(C)nc4ccc(C)cc34)o2)cc(OC)c1OC, which Potency is on record?
A: inconclusive [inhibitor, single point]

Q: Which Potency does the source give for CCOC(=O)c1c(NC(=O)c2ccc(S(=O)(=O)N3CCOCC3)cc2)sc2c1CCN(C(C)C)C2 here?
A: inconclusive [inhibitor, single point]

Q: For O=C(CCc1nc(-c2ccccc2Cl)no1)NCc1ccco1, which “activity change, negative = growth inhibition” value is on record?
A: inactive: -19.5%

Q: With CCCCN(C)Cc1c(C)[nH]c2ccccc2c1=O as the compound, how does the activity change, negative = growth inhibition read?
A: inconclusive: -36.4% [inhibitor]

Q: For CCCCC(=O)Nc1ccc(C2C(=O)c3ccccc3C2=O)cc1, which “activity change, negative = growth inhibition” value is on record?
A: inactive: -24.2%

Q: For COc1ccc(-n2nc(C(=O)NCC(=O)NCCCN3CCC(C)CC3)c3ccccc3c2=O)cc1Cl, which Potency is on record?
A: inconclusive [inhibitor, single point]

Q: With Cc1cccn2c(=O)c(C=C(C#N)C#N)c(N3CCN(c4ccccc4)CC3)nc12 as the compound, how does the Potency read?
A: inconclusive [inhibitor, single point]

Q: With O=C(N/N=C1/CC2CCC1C2)c1cc2ccccc2cc1O (stereo not drawn) as the compound, how does the Potency read?
A: active: 23.1 µM

Q: With COC(OC)c1ccc(C#N)c(=O)[nH]1 as the compound, how does the “activity change, negative = growth inhibition” value read?
A: inactive: -12.6%

Q: Which “activity change, negative = growth inhibition” value does the source give for COC(=O)NCc1ccc2c(c1)OCO2 here?
A: inactive: 36.1%

Q: For O=C(NCc1ccco1)C(c1ccncc1)N(C(=O)Cn1nnc2ccccc21)c1ccccc1 (stereo not drawn), which “activity change, negative = growth inhibition” value is on record?
A: inactive: 3.69%

Q: With COc1ccc(N2CCN(C(=O)NCc3cccc(OC)c3)CC2)cc1 as the compound, how does the Potency read?
A: inconclusive [inhibitor, single point]

Q: For CCC(C(=O)Nc1nc(C)cs1)c1ccccc1 (stereo not drawn), which Potency is on record?
A: inconclusive [inhibitor, single point]

Q: For O=C(N/N=C1/CC2C=CCC12)c1ccco1 (stereo not drawn), which Potency is on record?
A: inconclusive [inhibitor, single point]

Q: Which Potency does the source give for CC1(C(=O)NS(=O)(=O)C2CC2)CCCN(C(=O)c2ccccc2C(F)(F)F)C1 (stereo not drawn) here?
A: active: 6.51 µM

Q: With COc1cc(/C=C/C(=O)OCC(=O)Nc2cccc(Oc3ccccc3)c2)ccc1O as the compound, how does the “activity change, negative = growth inhibition” value read?
A: inactive: -24.9%

Q: For Cc1cc(C)n2c(Nc3c(C)cccc3C)c(CC(C)C)nc2n1, which Potency is on record?
A: inconclusive [inhibitor, single point]

Q: With Cc1c([N+](=O)[O-])cc(C(=O)Oc2ccc(Br)cc2C(=S)N2CCCCC2)cc1[N+](=O)[O-] as the compound, how does the “activity change, negative = growth inhibition” value read?
A: inactive: -5.59%

Q: Which Potency does the source give for C[C@@H]1C=C[C@](Cc2ccccc2)(C(=O)NCC2CC2)N1C(=O)c1ccccc1 here?
A: active: 18.4 µM

Q: With Cc1nn(-c2ccccc2)c(Cl)c1C1C(C#N)=C(N)Oc2c1c(C)nn2-c1ccccc1 (stereo not drawn) as the compound, how does the “activity change, negative = growth inhibition” value read?
A: inactive: -17.6%

Q: With COc1ccc2oc(C(=O)OCC(=O)Nc3ccc(C(=O)N(C)C)cc3)c(C)c2c1 as the compound, how does the “activity change, negative = growth inhibition” value read?
A: inactive: 2.91%

Q: Which “activity change, negative = growth inhibition” value does the source give for CCCC(=O)N1CCN(c2ccc(NC(=O)c3ccc(Br)o3)cc2)CC1 here?
A: inactive: -14.5%

Q: Which Potency does the source give for CCCCC(=O)OC1=C(C(C)=O)N(Cc2ccccc2)S(=O)(=O)c2ccccc21 here?
A: inconclusive [inhibitor, single point]

Q: With Cc1cc(/C=C(/C#N)c2cccc(F)c2)c(C)n1-c1cccnc1 as the compound, how does the Potency read?
A: inconclusive [inhibitor, partial curve]

Q: With O=C(NC(=S)N1CCN(c2ccc(F)cc2)CC1)c1ccccc1 as the compound, how does the Potency read?
A: inconclusive [inhibitor, single point]

Q: With C[C@@H]1CN([C@H](C)CO)C(=O)CCCn2nncc2CO[C@H]1CN(C)C(=O)Nc1ccc(N2CCN(C)CC2)cc1 as the compound, how does the Potency read?
A: inconclusive [inhibitor, single point]

Q: With Cc1ccc(F)cc1C(=O)N1CCCC(c2cc(C(=O)NCc3ccccc3)no2)C1 (stereo not drawn) as the compound, how does the Potency read?
A: inconclusive [inhibitor, partial curve]

Q: Which Potency does the source give for COc1ccc(NC(=O)c2ccccn2)cc1 here?
A: inconclusive [inhibitor, partial curve, poor fit]

Q: With COc1ccc(-c2cc(-c3cc(F)ccc3O)[nH]n2)cc1OC as the compound, how does the Potency read?
A: inconclusive [inhibitor, single point]

Q: Which “activity change, negative = growth inhibition” value does the source give for CS/C(N)=N/N=C/c1ccc2c(c1)OCO2 here?
A: inactive: 14.8%

Q: For CCN(CC)CCNC(=O)C1CCN(c2cc(C)nc3c(-c4ccc(Cl)cc4)c(C)nn23)CC1, which Potency is on record?
A: active: 3.66 µM
